Experimental data as given in paper PMC4336329 (PLoS ONE, 2015).
About 14,000 (4.5%) of roughly 310,000 compounds showed an effect of 50% or more. The effect is printed as a negative number. This is one part of the list.

Each compound was assayed against human ether-à-go-go-related gene (hERG) potassium channel (human, UniProt Q12809) (assay: primary screen, population patch clamp on CHO cells stably expressing hERG).
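Also: peak tail current of the secondary pulse compared with the same well before compound.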

Sequence of human ether-à-go-go-related gene (hERG) potassium channel (Q12809 whole entry, looked up): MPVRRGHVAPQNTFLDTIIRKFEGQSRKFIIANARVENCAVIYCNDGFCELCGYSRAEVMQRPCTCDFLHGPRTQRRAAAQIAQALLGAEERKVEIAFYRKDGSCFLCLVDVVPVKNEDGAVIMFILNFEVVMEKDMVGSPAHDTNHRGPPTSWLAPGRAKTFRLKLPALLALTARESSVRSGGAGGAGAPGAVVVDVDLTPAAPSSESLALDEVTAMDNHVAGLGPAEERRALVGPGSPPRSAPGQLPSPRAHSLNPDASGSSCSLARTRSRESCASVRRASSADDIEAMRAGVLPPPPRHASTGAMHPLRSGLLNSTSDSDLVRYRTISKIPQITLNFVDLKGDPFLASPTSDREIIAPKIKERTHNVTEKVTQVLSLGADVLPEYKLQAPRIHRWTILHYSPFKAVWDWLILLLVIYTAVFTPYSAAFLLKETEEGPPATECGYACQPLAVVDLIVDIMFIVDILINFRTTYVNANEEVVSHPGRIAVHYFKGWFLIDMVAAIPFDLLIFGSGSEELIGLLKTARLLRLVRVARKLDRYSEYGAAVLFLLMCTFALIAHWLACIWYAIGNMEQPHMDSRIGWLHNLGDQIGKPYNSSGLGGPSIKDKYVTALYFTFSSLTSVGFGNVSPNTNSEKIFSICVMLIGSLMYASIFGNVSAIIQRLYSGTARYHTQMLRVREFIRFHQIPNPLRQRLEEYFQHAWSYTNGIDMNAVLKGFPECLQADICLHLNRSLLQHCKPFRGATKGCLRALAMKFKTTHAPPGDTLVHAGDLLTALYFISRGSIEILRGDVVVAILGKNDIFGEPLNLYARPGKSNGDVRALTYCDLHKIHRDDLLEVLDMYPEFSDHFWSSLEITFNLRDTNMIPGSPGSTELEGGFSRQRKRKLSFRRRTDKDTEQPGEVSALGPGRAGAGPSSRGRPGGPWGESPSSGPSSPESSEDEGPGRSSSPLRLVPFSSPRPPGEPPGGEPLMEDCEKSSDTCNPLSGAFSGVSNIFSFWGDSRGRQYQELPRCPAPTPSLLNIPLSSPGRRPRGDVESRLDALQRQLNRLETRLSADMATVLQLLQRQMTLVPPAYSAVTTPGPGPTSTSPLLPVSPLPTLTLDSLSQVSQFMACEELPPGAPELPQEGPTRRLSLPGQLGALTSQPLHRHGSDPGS

Row | Structure (SMILES) | hERG current change (%, negative = inhibition) at 10uM [%]
1 | CC(=O)Nc1ccc(NC(=O)CSc2nnc(-c3ccccc3)n2Cc2ccc3c(c2)OCO3)cc1 | -19.2
2 | Cc1ccc(C2N(C)c3ccccc3-c3nc4ccccc4n32)o1 (stereo not drawn) | -5.15
3 | CCOC1(OCC)N=C(N)C2(C#N)C(c3cccc(C)c3)C12C#N (stereo not drawn) | 11.8
4 | COc1ccc(C(=O)COC(=O)CCc2ccccc2)cc1 | -11.4
5 | COc1ccc2cc(CCNC(=O)c3ccc(S(=O)(=O)N4CCOCC4)cc3)c(=O)[nH]c2c1 | -23.3
6 | Cc1cc(C)cc(NC(=O)C2CCCN2/C=C/C(=O)C(F)(F)F)c1 (stereo not drawn) | -12.1
7 | O=C(O)C(Nc1nc(C(F)(F)F)nc2ccccc12)c1ccccc1 (stereo not drawn) | 26.2
8 | COC(=O)C1=C(c2cc3ccccc3s2)C[C@@H]2CC[C@H]1N2C(=O)NCc1ccccc1 | -20.9
9 | O=C(O)CC(NC(=O)COc1ccc(Cl)cc1Cl)C(=O)O (stereo not drawn) | 13.1
10 | COc1ccccc1N(CC(=O)NCCSCc1ccccc1Cl)S(C)(=O)=O | -3.74
11 | COc1ccc(/C=C2\N=C(C)N(c3ccc(C(=O)O)cc3)C2=O)cc1OC | 13.6
12 | Cc1ccccc1CNS(=O)(=O)c1c(C(=O)N2CCCCC2)c(C)n(C)c1C | -3.14
13 | COc1ccc(-n2c(SCC(=O)Nc3ccc(Cl)cc3)nc(O)c(Cc3ccccc3)c2=O)cc1 | 10.7
14 | CCNC(=O)N1c2ccccc2Sc2ccccc21 | 10.8
15 | Cc1[nH]n(-c2cccc([N+](=O)[O-])c2)c(=O)c1-c1ccccc1 | 15.8
16 | COc1ccc(CCNC(=O)CN2C(=O)c3ccccc3S2(=O)=O)cc1OC | -8.28
17 | Cc1c(O)ccc2c(CC(=O)N[C@@H](Cc3ccc(O)cc3)C(=O)O)cc(=O)oc12 | 9.14
18 | Cc1nn(-c2ccccc2)c2c1C(c1ccc(F)cc1F)C(C#N)=C(N)O2 (stereo not drawn) | -9.42
19 | Clc1ccc(OCCSc2ncccn2)cc1 | 5.46
20 | CC(=O)N(C)c1nnc(-c2ccccn2)s1 | 0.358
21 | N#Cc1cnn(-c2ncnc3sc4c(c23)CCCC4)c1N | -17.4
22 | CCCCn1c(N)c(-c2nc3ccccc3o2)c2c([N+](=O)[O-])nn(C)c(=O)c21 | 8.09
23 | CCN(CC)CC(O)c1ccc(C2CCCC2)cc1.Cl (stereo not drawn) | -63

Row | Structure (SMILES) | hERG current change (%, negative = inhibition) at 10uM [%]
24 | COc1cccc(C2CC(c3ccc(Cl)cc3Cl)Nc3nc(N)nn32)c1 (stereo not drawn) | -21.7
25 | O=C(CSc1ccc(F)cc1)N1CCOCC1 | 16.2
26 | O=C(c1ccc(C(F)(F)F)cc1)C1CCCN(C(=O)CN2C(=O)CSC2=O)C1 (stereo not drawn) | 26.7
27 | O=c1cc(-c2cccc([N+](=O)[O-])c2)[nH][nH]1 | 18
28 | O=C(CC(O)(C(F)(F)F)C(F)(F)F)Nc1ccc(Cl)c(Cl)c1 | -20.7
29 | Cc1cccc2c1c(N=NC(N)=S)c(O)n2C1OC(CO)C(O)C(O)C1O (stereo not drawn) | 12.2
30 | Cc1cc(C)c2c(-n3cccc3)c(NC(=O)OC(C)C)sc2n1 | 8.67
31 | O=C(c1cccnc1)C1CCCN(Cc2nc(Cc3ccccc3F)no2)C1 (stereo not drawn) | -15.3
32 | Cc1ccc2nc(CSc3nnc(Cc4cccs4)n3C3CCCCC3)cc(=O)n2c1 | -15.6
33 | CCc1ccc(NC(=O)N2CCC(c3ccccc3)C2)cc1 (stereo not drawn) | -0.867
34 | CCOC(=O)C1(Cc2ccccc2)CCN(C2Cc3ccccc3C2)CC1 | -66.4
35 | O=C(COC(=O)/C=C/c1cccc(C(F)(F)F)c1)NC1CCS(=O)(=O)C1 (stereo not drawn) | -18
36 | COc1ccccc1NS(=O)(=O)c1ccc(C(=O)N2CCCCCCC2)cc1 | -26.4
37 | CCCCC(=O)N/N=C(/C)C1=C(C)C(C)(C)OC1=O | 22
38 | CCC(=O)N=c1sc2c(OC)ccc(OC)c2n1C | 11
39 | O=C(/C=C\c1cccs1)c1c(O)ccc2ccc(=O)oc12 | -0.288
40 | COc1cccc(CN2CCNC(=O)C2CC(=O)O)c1OC (stereo not drawn) | 11.4
41 | CC1(C)Cc2c(C#N)c(OCC(=O)c3ccc(Cl)cc3)nc(-c3ccco3)c2CO1 | 10
42 | O=C1c2ccccc2C2(c3ccc(Cl)cc3)NCCN12 (stereo not drawn) | 11.7
43 | CC(C)(C)NC(=O)[C@]1(C)CCC[C@@]2(C)C3CC[C@@]4(C)C[C@]3(CCC21)CC4=O (stereo partly drawn) | -8.58
44 | Cc1ccnc(N2CCCC(C(=O)Nc3cccc(C)c3C)C2)n1 (stereo not drawn) | 9.42
45 | Cc1nc2c(C(=O)Nc3ccc(N4CCCC(O)C4)cc3)snc2c(=O)[nH]1 (stereo not drawn) | -4.37
46 | COc1ccc(C/C(N)=N/O)cc1 | 9.96

Row | Structure (SMILES) | hERG current change (%, negative = inhibition) at 10uM [%]
47 | CCn1nnc(C(=O)O)c1C(=O)O | -6.51
48 | COc1cccc(CN(C(=O)c2cc3ccccc3oc2=O)C2CC2)c1 | -14.8
49 | CC(C)=CC(=O)OCC(=O)Nc1nc(C)c(Cl)cc1Cl | 0.219
50 | COc1cc(CNCCNCC(C)O)ccc1OCc1ccc(Cl)nc1 (stereo not drawn) | -8.7
51 | Cc1ccc(NC(=O)CCNS(=O)(=O)c2ccc3c(c2)oc(=O)n3C)c(C)c1 | -0.0525
52 | O=C(CC1CCCCC1)NCCCN1CCOCC1 | -0.948
53 | Cc1ccc(S(=O)(=O)NCCC(=O)N2CCOCC2)cc1C | -5.97
54 | C/C(=N\Nc1nc(C(C)(C)C)cs1)c1ccc(O)cc1 | 9.95
55 | Cc1ccc(CNC(=O)Cc2noc3ccccc23)cc1 | 24.7
56 | O=C(Nc1ccc2c(c1)C(=O)N(CC1CCCO1)C2=O)c1cccc(Br)c1 (stereo not drawn) | -33.2
57 | CCN(CC)S(=O)(=O)c1ccc(C(=O)Oc2cc(C)[nH]c(=O)c2[N+](=O)[O-])cc1 | 12.9
58 | COc1ccc(/C=C2\SC(=S)N(CCCC(=O)N3CCOCC3)C2=O)cc1OC | -0.193
59 | Cc1ccc2cc(/C=C(\C#N)C(N)=O)c(N3CCCCC3)nc2c1 | 8.3
60 | O=C(Nc1ccc(N2CCN(C(=O)c3ccco3)CC2)cc1)c1ccc(Br)cc1 | 11.4
61 | COC(=O)c1cccc(S(=O)(=O)N2CCC(C)CC2)c1 | -4.23
62 | COc1cccc(-c2nc3ccccc3s2)c1O | 7.97
63 | CCOC(=O)Cc1cc(=O)n2[nH]c(-c3ccc(Cl)cc3)cc2n1 | -20.4
64 | CCN(CC)c1ccc(/C=N/NS(=O)(=O)c2ccc(CNC(C)=O)cc2)cc1 | 13.2
65 | CCOc1ccc(NC(=O)CCSc2nnc(C)s2)cc1 | -5.41
66 | O=C(COC(=O)c1ccc(S(=O)(=O)NCc2ccco2)cc1)Nc1ncc(Cl)cc1Cl | -2.54
67 | CCn1c(-c2ccco2)nc2ccccc21 | -10.6
68 | CCCc1cc(=O)[nH]c(SCC(=O)N2CCN(S(=O)(=O)c3ccccc3)CC2)n1 | 13.8
69 | O=C(CSc1nc2ccccc2c(=O)[nH]1)Nc1ccc(S(=O)(=O)N2CCCC2)cc1 | 3.61

Row | Structure (SMILES) | hERG current change (%, negative = inhibition) at 10uM [%]
70 | CCCNC(=O)Cn1c2ccccc2c2nc(=O)cc(C)n21 | 8.15
71 | O=C(Nc1ccc(N2CCCC2)c(Cl)c1)c1cccc(-c2cc3ccccc3oc2=O)c1 | 7.73
72 | Fc1cccc(CSc2nnc3c(n2)[nH]c2ccccc23)c1 | 13.8
73 | COCCn1nnnc1C(c1ccc(O)c(OC)c1)N1CCc2ccccc2C1.Cl (stereo not drawn) | 3.51
74 | COC(=O)CNC(=O)C1CCN(C(=O)OCc2ccccc2)CC1 | 16.2
75 | O=C(COC(=O)[C@@H]1CC(O)CN1S(=O)(=O)c1ccccc1[N+](=O)[O-])c1ccccc1 (stereo partly drawn) | -2.75
76 | O=C(CC1C(=O)NCCN1CC1CCCCC1)NCc1ccc(Cl)cc1 (stereo not drawn) | -20.3
77 | O=C(NCc1ccc(F)cc1)c1cc2ccccn2n1 | -14.1
78 | COc1cc2c(OC)cccc2cc1C(=O)O | 1.76
79 | COc1ccc(OC)c2c(N3CC(C)OC(C)C3)cc(C(F)(F)F)nc12 (stereo not drawn) | -10.3
80 | O=C(Nc1nccs1)c1cncc(Br)c1 | -4.53
81 | Cc1nn(CCCC(=O)NC(C)c2ccccc2)c(=O)c2nn(-c3ccccc3)c(C)c12 (stereo not drawn) | -33.9
82 | COc1cccc(Nc2nc(-c3sc(NC(=O)c4ccco4)nc3C)cs2)c1 | 19.5
83 | Cc1ccc(C(=O)N/C(=C\c2sccc2C)C(=O)NCCCN2CCOCC2)cc1 | -17.7
84 | C=CCn1c(C)cc(C)c(C#N)c1=O | 9.6
85 | O=C(O)C1C2CCC(O2)C1C(=O)Nc1ccc(Cl)cc1 (stereo not drawn) | 20.7
86 | O=C(CC(c1ccc(F)cc1)c1ccco1)Nc1nccs1 (stereo not drawn) | 0.85
87 | CCOC(=O)Cn1nc(C)c(NC(=O)COc2ccc(OC)cc2)c1C | 0.252
88 | c1ccc2c(c1)OCc1cn[nH]c1-2 | 1.49
89 | Cc1ccc(N(C(C)C(=O)Nc2c(C)n(C)n(-c3ccccc3)c2=O)S(C)(=O)=O)cc1C (stereo not drawn) | 11.5
90 | CC(=O)c1cccc(CN2CCN(CC=C(C)C)C(CCO)C2)c1 (stereo not drawn) | -8.1
